# The whole screen tested about 350,000 compounds, of which about 31,000 (8.9%) were called active. Calls follow the shape of the dose curve; as a rule, active = well fitted inhibition curve with a large enough effect; inconclusive = small, poorly fitted or top-dose-only effect; inactive = no such curve, though single readings can be large or run the other way. Inconclusive results, whose numbers are uncertain, are shown. A potency beside an inconclusive call is a rough fit, not a confirmed value.
# Target: Histone-lysine N-methyltransferase EHMT2 (Homo sapiens) (UniProt Q96KQ7)
# Chain of UniProt Q96KQ7 (Q96KQ7 913-1193 limits assumed): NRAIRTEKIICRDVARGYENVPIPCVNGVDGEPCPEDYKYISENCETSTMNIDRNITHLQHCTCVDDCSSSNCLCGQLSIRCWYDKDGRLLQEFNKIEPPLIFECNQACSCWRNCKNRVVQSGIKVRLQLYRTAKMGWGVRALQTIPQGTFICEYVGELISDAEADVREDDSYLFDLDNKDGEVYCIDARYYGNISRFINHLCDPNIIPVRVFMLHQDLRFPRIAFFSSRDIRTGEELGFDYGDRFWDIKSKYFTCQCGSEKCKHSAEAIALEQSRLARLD
# Test: qHTS Assay for Inhibitors of Histone Lysine Methyltransferase G9a; also: nearly all actives have a fitted effect of over 75% in size
# Conditions: G9a H3K9 monomethylation, AlphaScreen, 2 h; series mostly up to 59 µM
# Source text: Methylated lysines, on the N-terminal tails of histone proteins serve as epigenetic markers to recruit factors that can then modify local chromatin structure to lead to functional consequences. G9a and other members of the SUV39 family of the SET domain-containing superfamily of histone lysine methyltransferases (HMT) have been identified to specifically methylate Lys9 of histone H3 (H3K9). G9a catalyzes the mono- and di-methylation of H3K9 in mammalian euchromatic regions, where the resulting H3K9me2 is indicative of transcriptional repression. […] Methylation of biotinylated-histone peptide is measured through specific antibody-based detection, in conjunction with streptavidin-coated donor and anti-IgG antibody-coated acceptor beads. […]
# To each well of a 1,536w plate, 2ul of HMT enzyme (final 20nM) were added, using a nanoliter dispenser. […] Methylated b-H3K9 peptide product was detected with 0.5 ug/mL rabbit polyclonal anti-monomethyl histone H3K9 antibody (Abcam Inc., Cambridge, MA) and 20 ug/mL each streptavidin-coated donor and anti-rabbit IgG acceptor AlphaScreen beads. […] Microplates were then read on an EnVision multilabel plate reader using the 1,536 plate HTS AlphaScreen aperture (excitation time 80 ms, measurement time 240 ms).
# Potency is read from the fitted curve at half-maximal effect; tags tell the direction and shape of the fitted curve.
row,SMILES,Potency
1,COc1cc(/C=N/Nc2ccc(Cl)c(C(=O)O)c2)ccc1OC(=O)c1ccc(F)cc1,"inconclusive: 28.2 µM [inhibitor, single point]"
2,Cc1cc(C)cc(-n2cccc2/C=C2/C(=N)N3C(=NC2=O)SN=C3S(C)(=O)=O)c1,"inconclusive: 44.7 µM [inhibitor, partial curve, poor fit]"
